{"source": "ChEMBL document CHEMBL4888484", "about": "“Replenishing the malaria drug discovery pipeline: Screening and hit evaluation of the MMV Hit Generation Library 1 (HGL1) against asexual blood stage Plasmodium falciparum ,using a nano luciferase reporter read-out” (2022)", "note": "The campaign covered roughly 150,000 compounds. About 540 (0.36%) showed an effect of 50% or more. This is one part of the list."}
{"test_system": "Plasmodium falciparum", "assay": "Primary screen in NF54 nanoGlo assay, in single point, at 2uM, 72h; a lower Z score goes with more inhibition", "type": "functional, Erythrocyte", "details": "timepoint 72 hour", "units": {"% Inhibition": "%"}}
{"smiles": "CCCNC(N)=NCC1CCN(C(=O)OC(C)(C)C)CC1", "% Inhibition": -8, "Z score": 1.61}
{"smiles": "Cc1noc([C@@H]2CN(C(=O)c3ccoc3C)C[C@H]2C(N)=O)n1", "% Inhibition": -11, "Z score": 1.64}
{"smiles": "Cc1ccc(Cn2ncc3c(N4CCN(c5ccccc5C)CC4)ncnc32)cc1", "% Inhibition": -11, "Z score": 2.04}
{"smiles": "Cc1ccc(OCC[C@H]2CCN(C(=O)Cc3cccs3)C2)cc1", "% Inhibition": -6, "Z score": 0.9}
{"smiles": "Cc1nn(CCO)c(C)c1CN1CCc2nocc2C1", "% Inhibition": -15, "Z score": 1.63}
{"smiles": "C[C@H](NCc1c2c(nn1C)CCCC2)c1ccc(F)c(F)c1", "% Inhibition": -12, "Z score": 1.6}
{"smiles": "CCn1cc(OCCCOc2cccc(C#N)c2)cn1", "% Inhibition": 0, "Z score": -0.04}
{"smiles": "CCn1ncc(-c2cc(C(=O)Nc3ccc(F)cc3OC(F)F)c3ccccc3n2)c1C", "% Inhibition": -1, "Z score": 0.1}
{"smiles": "c1ccc(CN[C@H]2CC23CCCCC3)cc1", "% Inhibition": -3, "Z score": 0.52}
{"smiles": "O=C(Cc1noc(CNC(=O)NC2CCCCC2)n1)NC1CCCCC1", "% Inhibition": 16, "Z score": -1.99}
{"smiles": "CCc1nnc(NC[C@H](C)Oc2ccccc2OC)nc1CC", "% Inhibition": -16, "Z score": 2.52}
{"smiles": "CN(Cc1cnn(C)c1)C(=O)[C@H]1CC(=O)N(C2CC2)C1", "% Inhibition": 2, "Z score": -0.29}
{"smiles": "O=C1NCCN1C(=O)NCc1cnn2c1CCCC2", "% Inhibition": -10, "Z score": 1.88}
{"smiles": "COCCN(CC(=O)N(CCc1c[nH]c2ccccc12)Cc1ccccc1)C(=O)Nc1ccc(C#N)cc1", "% Inhibition": -19, "Z score": 2.09}
{"smiles": "COc1ccc([C@H](C)N[C@H]2CC[C@H](O)CC2)cc1F", "% Inhibition": -11, "Z score": 1.6}
{"smiles": "Cc1ccc(S(=O)(=O)Nc2nc3c(C)cc(NC(=O)c4ccc(C)c(F)c4)cc3s2)cc1", "% Inhibition": 7, "Z score": -0.8}
{"smiles": "O=C(Cn1c(=O)c2sccc2n(CC(=O)NC2CCCCC2)c1=O)NCc1cccs1", "% Inhibition": 25, "Z score": -2.87}
{"smiles": "O=C(c1cccnc1)N1C[C@@H]2C[C@@H](O)CN2C2(CN(Cc3cccc(Cl)c3)C2)C1", "% Inhibition": -12, "Z score": 1.79}
{"smiles": "CC1CCN(c2cncnc2-n2cc(NC(=O)c3ccc(Cl)s3)cn2)CC1", "% Inhibition": -11, "Z score": 1.23}
{"smiles": "CN1CCNC(=O)C12CCN(S(=O)(=O)c1cccc(Cl)c1)CC2", "% Inhibition": -11, "Z score": 2.08}
{"smiles": "CCS(=O)(=O)N1CCC[C@H](c2nnc3n2CCN(C(=O)c2ccc(OC)cc2C)C3)C1", "% Inhibition": -5, "Z score": 1.02}
{"smiles": "COc1ccc(OC)c(NC(=O)N(C)Cc2nnc(C)o2)c1", "% Inhibition": 4, "Z score": -0.63}
{"smiles": "c1csc(-c2ccc(N3CCNCC3)nn2)c1", "% Inhibition": -15, "Z score": 1.71}
{"smiles": "CC[C@@H](c1cccnc1)N(C)Cc1ccc(C(F)(F)F)nc1", "% Inhibition": 7, "Z score": -0.94}
{"smiles": "O=c1c2ccccc2nnn1Cc1cc(Cl)c2c(c1)OCO2", "% Inhibition": -11, "Z score": 1.81}
{"smiles": "COc1ccc(S(=O)(=O)N2CCN(CC3CC4C=CC3C4)CC2)cc1", "note": "(stereo not drawn)", "% Inhibition": -3, "Z score": 0.41}
{"smiles": "O=C(Nc1cc(F)ccc1F)c1cc2nc(-c3ccco3)cc(C(F)(F)Cl)n2n1", "% Inhibition": -13, "Z score": 1.68}
{"smiles": "C#CCOc1nc(Nc2ccc(C)cc2)nc(N(c2ccccc2)c2ccccc2)n1", "% Inhibition": -34, "Z score": 3.98}
{"smiles": "Cc1cccc(C(=O)NCCCN(C)c2ccccc2)n1", "% Inhibition": 3, "Z score": -0.57}
{"smiles": "O=C(c1ccc2c(c1)OCO2)N(CC(=O)N1CCc2sccc2C1COc1ccccc1)CC1CCCO1", "note": "(stereo not drawn)", "% Inhibition": -27, "Z score": 2.58}
{"smiles": "C[C@@H](C(=O)N1CCc2ccccc21)N(C)Cc1nccn1C(F)F", "% Inhibition": -13, "Z score": 1.74}
{"smiles": "Cc1cc(-c2c(C)sc(C)c2S(=O)(=O)N2CCOCC2)on1", "% Inhibition": -8, "Z score": 1.45}
{"smiles": "CCC1CCCC(NC(=O)NOC)C1", "note": "(stereo not drawn)", "% Inhibition": -2, "Z score": 0.27}
{"smiles": "O=C(NC[C@]1(O)CCCNC1)c1ccc(-c2c(O)ccc3ccccc23)cc1", "% Inhibition": 1, "Z score": -0.1}
{"smiles": "COc1cccc(O[C@@H](C)CNc2ncccn2)c1", "% Inhibition": -2, "Z score": 0.24}
{"smiles": "Cc1nc(-n2nc(C)c(CC(=O)N3CCN(c4cccc(C(F)(F)F)c4)CC3)c2O)sc1C", "% Inhibition": -7, "Z score": 0.92}
{"smiles": "CC[C@H](O)CN(Cc1ccc(S(C)(=O)=O)cc1)c1ccccc1", "% Inhibition": 0, "Z score": 0.02}
{"smiles": "O=C(CCc1ccccc1)Nc1ncn(Cc2ccccn2)n1", "% Inhibition": 2, "Z score": -0.23}
{"smiles": "COCC(=O)N(C1CCOCC1)C1CCN(C(=O)c2ccccc2F)CC1", "% Inhibition": -6, "Z score": 0.74}
{"smiles": "Cc1c(S(=O)(=O)NC2CCN(c3nccn3C)CC2)cnn1C", "% Inhibition": -7, "Z score": 0.94}
{"smiles": "CC(C)(O)c1cn(C2CN(C(=O)c3ccc(Cl)cc3O)C2)nn1", "% Inhibition": -3, "Z score": 0.51}
{"smiles": "CCOCCCN(CC(=O)N(Cc1cccn1Cc1ccc(Br)cc1)C1CCCCC1)C(=O)c1ccc(C)cc1", "% Inhibition": -16, "Z score": 2.31}
{"smiles": "CC(C)(C)NC(=O)N(Cc1nccn1Cc1c(F)cccc1Cl)C1CC1", "% Inhibition": 5, "Z score": -0.58}
{"smiles": "CCC1CC(C(=O)N2CCc3[nH]ncc3C2)CCO1", "note": "(stereo not drawn)", "% Inhibition": -12, "Z score": 2.17}
{"smiles": "Cc1nnc(N2CCC(COc3ccc(C4CC4)nn3)CC2)s1", "% Inhibition": -11, "Z score": 1.25}
{"smiles": "CC(=O)c1ccc(CNc2nccc(C)n2)nc1C", "% Inhibition": -8, "Z score": 0.93}
{"smiles": "CCN(C(=O)CCc1nc(-c2nn(-c3ccc(C)cc3)c(=O)n(C)c2=O)no1)c1cccc(Cl)c1", "% Inhibition": 0, "Z score": -0.07}
{"smiles": "Cc1cccc(-n2nc(-c3ccccc3)nc2CCn2ccc(=O)[nH]c2=O)c1", "% Inhibition": -4, "Z score": 0.82}
{"smiles": "Cc1cc([C@H](C)NCc2nnc(C)o2)c(C)o1", "% Inhibition": -3, "Z score": 0.32}
{"smiles": "CCC(=O)N1CCNc2ncc(C)cc21", "% Inhibition": -4, "Z score": 0.4}
{"smiles": "Cc1nnsc1C(=O)N[C@H]1CN(C2CCOCC2)C[C@@H]1C1CC1", "% Inhibition": -21, "Z score": 4.18}
{"smiles": "CC1=CC(c2cnc(-c3ccccc3)c(C)c2)CN(C(=O)c2ccccc2)C1c1ccccc1", "note": "(stereo not drawn)", "% Inhibition": 1, "Z score": -0.16}
{"smiles": "Cc1ccc(C(=O)Nc2cnns2)cn1", "% Inhibition": 5, "Z score": -0.71}
{"smiles": "CC(C)c1nccn1CCC(=O)N1CCC2(CCCC2)CC1", "% Inhibition": 7, "Z score": -1.03}
